Assay results: the supplement of paper PMC10126150
Sequences with one replicate were seen in a single cluster, so their values are uncertain.

System: ATP
Test: switch fluorescence ratio, 500 uM ATP over buffer (Cy3 cluster intensity, sum of 5 cycles each) (fold (ratio)); higher = stronger signal-on switching upon ATP binding; sequences stand for … in TCGTCGGCAGCGTCAGATGTGTATAAGAGACAGTTTTTTTTTTTTTTTTTTTTTTTTT…TC
Conditions: aptamer strand: ATP DNA aptamer (quencher-CACCTGGGGGAGTATTGCGGAGGAAGG + anchor), 100 nM annealed; ATP concentration: 500 uM; one replicate
How it was run: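 Clusters with intensities outside 100-1000 RFU were excluded. The remaining Cy3-labelled switching-strand clusters on a modified Illumina MiSeq flow-cell had been annealed to 100 nM quencher-labelled ATP aptamer and imaged in selection buffer, then after 15 min with 500 uM ATP at 22 °C, for five cycles separated by NaOH stripping and re-annealing. The fluorescence ratio, averaged per switch-domain sequence, is each cluster's summed target-cycle Cy3 intensity over its summed buffer-cycle Cy3 intensity.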
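Note: ATP exposure 15 min at 22 °C before imaging.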

Row | Sequence | switch fluorescence ratio
1 | TTGCAGGGCA | 1.01
2 | TTGCAGGTCC | 1.05
3 | TTGCAGTAGA | 0.965
4 | TTGCATATGT | 0.99
5 | TTGCATCCGG | 0.964
6 | TTGCATGACT | 1.05
7 | TTGCATTTAG | 0.998
8 | TTGCCACATA | 1.09
9 | TTGCCATGCA | 0.98
10 | TTGCCCCAAT | 1.06
11 | TTGCCCCTTG | 1.02
12 | TTGCCCGAGC | 1
13 | TTGCCCTTGC | 1.05
14 | TTGCCGGGAC | 1.01
15 | TTGCCTCTGT | 1.14
16 | TTGCCTGTGG | 0.983
17 | TTGCCTTCAT | 1.1
18 | TTGCCTTTC | 1.23
19 | TTGCGAAAAG | 1.02
20 | TTGCGCAGGA | 1.05
21 | TTGCGCAGGT | 1.05
22 | TTGCGCGCAT | 1.02
23 | TTGCGTCCTG | 0.988
24 | TTGCGTCGGT | 1.03
25 | TTGCTAGCGT | 1.04
26 | TTGCTGAATC | 1.05

Row | Sequence | switch fluorescence ratio
27 | TTGGAACCC | 1.03
28 | TTGGAAGAGG | 0.991
29 | TTGGAAGCGC | 1.04
30 | TTGGACCAGG | 0.952
31 | TTGGACGAGT | 1.02
32 | TTGGACGCGG | 1.04
33 | TTGGACGGAC | 1.13
34 | TTGGAGACTC | 0.995
35 | TTGGAGCAAT | 3.89
36 | TTGGAGTAGC | 0.997
37 | TTGGATACT | 1.27
38 | TTGGATAGAC | 1.04
39 | TTGGATCATC | 0.965
40 | TTGGCAGGTT | 0.953
41 | TTGGCCATAT | 1.04
42 | TTGGCCCGTA | 1.06
43 | TTGGCCCGTG | 1.05
44 | TTGGCCGGTA | 1.02
45 | TTGGCGTTG | 0.986
46 | TTGGCTCTGA | 0.999
47 | TTGGCTGAAG | 0.955
48 | TTGGCTTCT | 1.03
49 | TTGGGAACG | 1.02
50 | TTGGGACCGC | 0.96
51 | TTGGGAGTG | 0.918
52 | TTGGGATCAA | 0.963

Row | Sequence | switch fluorescence ratio
53 | TTGGGATCGC | 0.997
54 | TTGGGCGTGA | 0.994
55 | TTGGGCGTTG | 0.971
56 | TTGGGCTCTT | 1.01
57 | TTGGGCTTAG | 0.984
58 | TTGGGGAGC | 0.982
59 | TTGGGGATCT | 1.04
60 | TTGGGGCAAT | 1.37
61 | TTGGGGGTC | 1.01
62 | TTGGGGTTT | 0.988
63 | TTGGGTCAGC | 0.986
64 | TTGGGTTCTG | 1.02
65 | TTGGGTTGTA | 1
66 | TTGGTAAACA | 0.989
67 | TTGGTACCTG | 0.998
68 | TTGGTATAAT | 1.01
69 | TTGGTATTTC | 0.969
70 | TTGGTCCTCG | 1.03
71 | TTGGTCGAC | 0.993
72 | TTGGTGATGC | 1.23
73 | TTGGTGCCAA | 1.02
74 | TTGGTGCGCA | 1.02
75 | TTGGTGGATA | 0.997
76 | TTGGTGTTTG | 1
77 | TTGGTTATGA | 1.03
78 | TTGGTTTCTA | 0.968

Row | Sequence | switch fluorescence ratio
79 | TTGTAACTGG | 1.03
80 | TTGTAAGCTG | 1.09
81 | TTGTAATGGT | 0.965
82 | TTGTACACGG | 0.993
83 | TTGTAGAGAC | 0.99
84 | TTGTAGATGA | 0.996
85 | TTGTAGATTT | 0.954
86 | TTGTAGCCGG | 1.03
87 | TTGTAGCGA | 1.69
88 | TTGTAGCGCT | 0.982
89 | TTGTATGTAT | 1.02
90 | TTGTCAGGAG | 0.975
91 | TTGTCCGCTG | 1.18
92 | TTGTCCGTGG | 1.01
93 | TTGTCGAGAG | 1.02
94 | TTGTCGGCTA | 0.971
95 | TTGTCTACCT | 1.05
96 | TTGTCTGTTT | 0.989
97 | TTGTGAATG | 0.985
98 | TTGTGACTTT | 1.05
99 | TTGTGAGCAC | 1.05
100 | TTGTGAGCGG | 1.16
101 | TTGTGATTCG | 1.01
